The other results are listed elsewhere or left out. Single values are uncertain, as repeats are few or missing.
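Further: cell number obtained by counting DAPI-stained nuclei in high-throughput microscope images with image analysis software, screen run in 1,536-well plates.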

This test has as its system COLO829. Put plainly: cell count relative to DMSO control; melanoma cells; higher = more viable cells. The conditions noted are these: library dose: low library concentration; 72 h.
`N#CC[C@H](C1CCCC1)n1cc(-c2ncnc3[nH]ccc23)cn1` [ruxolitinib] + CCc1ccc(CCOc2ccc(CC3SC(=O)NC3=O)cc2)nc1 [pioglitazone] (first compound 1 µM, partner dose 2 µM) yielded a cell count of 112%.
The figure for `N#CC[C@H](C1CCCC1)n1cc(-c2ncnc3[nH]ccc23)cn1` [ruxolitinib] + Cn1cc(/C=C2\C(=O)Nc3cccnc32)c2ccccc21 [GW441756] (first compound 1 µM, partner dose 0.4 µM) is 112%; for `CC[C@]1(O)C[C@H]2CN(CCc3c([nH]c4ccccc34)[C@@](C(=O)OC)(c3cc4c(cc3OC)N(C=O)[C@H]3[C@@](O)(C(=O)OC)[C@H](OC(C)=O)[C@]5(CC)C=CCN6CC[C@]43[C@@H]65)C2)C1` [vincristine] + COc1cc2c(Oc3ccc4[nH]c(C)cc4c3F)ncnc2cc1OCCCN1CCCC1 [cediranib] (first compound 0.0001 µM, partner dose 0.4 µM) it is 110%.
As to `Cc1cc(Nc2cc(N3CCN(C)CC3)nc(Sc3ccc(NC(=O)C4CC4)cc3)n2)n[nH]1` [Tozasertib] + CC1(C)NC(=O)N(c2ccc([N+](=O)[O-])c(C(F)(F)F)c2)C1=O [nilutamide] (first compound 0.006 µM, partner dose 1 µM), the cell count worked out at 84.2%.
The value for `N#CC[C@H](C1CCCC1)n1cc(-c2ncnc3[nH]ccc23)cn1` [ruxolitinib] + COc1ccc(COc2ccc(Cc3cnc(N)nc3N)cc2OC)cc1 [GW2580] (first compound 1 µM, partner dose 1 µM) was 120%; that for `N#CC[C@H](C1CCCC1)n1cc(-c2ncnc3[nH]ccc23)cn1` [ruxolitinib] + OCCn1cc(-c2cnc3nnn(Cc4ccc5ncccc5c4)c3n2)cn1 [PF04217903] (first compound 1 µM, partner dose 1 µM) was 114%.
As to `N#CC[C@H](C1CCCC1)n1cc(-c2ncnc3[nH]ccc23)cn1` [ruxolitinib] + NCC(=O)Nc1ccc(-n2nc(C(F)(F)F)cc2-c2ccc3c(ccc4ccccc43)c2)cc1 [OSU03012] (first compound 1 µM, partner dose 1 µM), the cell count worked out at 93.6%.
The compound `N#CC[C@H](C1CCCC1)n1cc(-c2ncnc3[nH]ccc23)cn1` [ruxolitinib] + O=C(O)c1ccc(-c2c[nH]c3ncc(-c4ccccc4)cc23)cc1C1CCCC1 [GSK650394] (first compound 1 µM, partner dose 0.16 µM) yielded a cell count of 98.9%.
The value for `N#CC[C@H](C1CCCC1)n1cc(-c2ncnc3[nH]ccc23)cn1` [ruxolitinib] + N#Cc1c(O)c2c(-c3ccc(-c4ccccc4O)cc3)csc2[nH]c1=O [A769662] (first compound 1 µM, partner dose 2 µM) was 121%; that for `N#CC[C@H](C1CCCC1)n1cc(-c2ncnc3[nH]ccc23)cn1` [ruxolitinib] + CN(C)S(=O)(=O)c1ccc2c(c1)/C(=C/c1cc3c([nH]1)CCCC3)C(=O)N2 [SU6656] (first compound 1 µM, partner dose 0.4 µM) was 111%; that for `Cc1cc(Nc2cc(N3CCN(C)CC3)nc(Sc3ccc(NC(=O)C4CC4)cc3)n2)n[nH]1` [Tozasertib] + Cc1cc(N2CCOCC2)cc2[nH]c(-c3c(NC[C@@H](O)c4cccc(Cl)c4)cc[nH]c3=O)nc12 [BMS536924] (first compound 0.006 µM, partner dose 0.2 µM) was 105%.
The value for `Cc1cc(Nc2cc(N3CCN(C)CC3)nc(Sc3ccc(NC(=O)C4CC4)cc3)n2)n[nH]1` [Tozasertib] + COc1ccc2c(c1)CCC1C2CCC2(C)C(NCCCCCCN3C(=O)C=CC3=O)CCC12 [U73122] (first compound 0.006 µM, partner dose 0.4 µM) was 79.5%; that for `CC[C@]1(O)C[C@H]2CN(CCc3c([nH]c4ccccc34)[C@@](C(=O)OC)(c3cc4c(cc3OC)N(C=O)[C@H]3[C@@](O)(C(=O)OC)[C@H](OC(C)=O)[C@]5(CC)C=CCN6CC[C@]43[C@@H]65)C2)C1` [vincristine] + O=C1NC(=O)/C(=C/c2ccc(-c3ccc(F)cc3O)o2)S1 [AS252424] (first compound 0.0001 µM, partner dose 1 µM) was 102%.
Take `Cc1cc(Nc2cc(N3CCN(C)CC3)nc(Sc3ccc(NC(=O)C4CC4)cc3)n2)n[nH]1` [Tozasertib] + O=C(Nc1ccccc1)c1cc([N+](=O)[O-])ccc1Cl [GW9662] (first compound 0.006 µM, partner dose 2 µM): the cell count amounted to 63.2%.
For the compound `N#CC[C@H](C1CCCC1)n1cc(-c2ncnc3[nH]ccc23)cn1` [ruxolitinib] + C=CCn1c(=O)c2cnc(Nc3ccc(N4CCN(C)CC4)cc3)nc2n1-c1cccc(C(C)(C)O)n1 [MK1775] (first compound 1 µM, partner dose 0.02 µM), the cell count stood at 101%.
The compound `CC[C@]1(O)C[C@H]2CN(CCc3c([nH]c4ccccc34)[C@@](C(=O)OC)(c3cc4c(cc3OC)N(C=O)[C@H]3[C@@](O)(C(=O)OC)[C@H](OC(C)=O)[C@]5(CC)C=CCN6CC[C@]43[C@@H]65)C2)C1` [vincristine] + C[C@@H]1CCN(C(=O)CC#N)C[C@@H]1N(C)c1ncnc2[nH]ccc12 [CP690550] (first compound 0.0001 µM, partner dose 1 µM) yielded a cell count of 80.9%.
The figure for `N#CC[C@H](C1CCCC1)n1cc(-c2ncnc3[nH]ccc23)cn1` [ruxolitinib] + O=C1NC(=O)/C(=C/c2ccc(-c3ccc(F)cc3O)o2)S1 [AS252424] (first compound 1 µM, partner dose 1 µM) is 108%; for `CC[C@]1(O)C[C@H]2CN(CCc3c([nH]c4ccccc34)[C@@](C(=O)OC)(c3cc4c(cc3OC)N(C=O)[C@H]3[C@@](O)(C(=O)OC)[C@H](OC(C)=O)[C@]5(CC)C=CCN6CC[C@]43[C@@H]65)C2)C1` [vincristine] + COc1ccc(-c2ccc3c(N4CCOCC4)nc(N4C[C@@H](C)O[C@@H](C)C4)nc3n2)cc1CO [KU0063794] (first compound 0.0001 µM, partner dose 0.02 µM) it is 97.7%; for `N#CC[C@H](C1CCCC1)n1cc(-c2ncnc3[nH]ccc23)cn1` [ruxolitinib] + CCN(CC)CCCCNc1ncc2cc(-c3cc(OC)cc(OC)c3)c(NC(=O)NC(C)(C)C)nc2n1 [PD173074] (first compound 1 µM, partner dose 0.1 µM) it is 83.8%.
The value for `N#CC[C@H](C1CCCC1)n1cc(-c2ncnc3[nH]ccc23)cn1` [ruxolitinib] + O=C(Nc1cccc(Cl)c1)Nc1ncc(CCNc2ncnc3ccsc23)s1 [SNS314] (first compound 1 µM, partner dose 0.0008 µM) was 111%; that for `N#CC[C@H](C1CCCC1)n1cc(-c2ncnc3[nH]ccc23)cn1` [ruxolitinib] + NC(=O)Nc1cc(-c2cccc(F)c2)sc1C(=O)N[C@H]1CCCNC1 [AZD7762] (first compound 1 µM, partner dose 0.02 µM) was 102%; that for `N#CC[C@H](C1CCCC1)n1cc(-c2ncnc3[nH]ccc23)cn1` [ruxolitinib] + CC(C)CCN1c2nc(Nc3cc(F)c(O)c(F)c3)ncc2N(C)C(=O)C1C [BID1870] (first compound 1 µM, partner dose 0.2 µM) was 115%.
The figure for `Cc1cc(Nc2cc(N3CCN(C)CC3)nc(Sc3ccc(NC(=O)C4CC4)cc3)n2)n[nH]1` [Tozasertib] + Oc1cc(-c2nc(-c3ccccc3)[nH]c2-c2ccncc2)ccc1Cl [L779450] (first compound 0.006 µM, partner dose 0.2 µM) is 91.2%; for `N#CC[C@H](C1CCCC1)n1cc(-c2ncnc3[nH]ccc23)cn1` [ruxolitinib] + CC1(C)NC(=O)N(c2ccc([N+](=O)[O-])c(C(F)(F)F)c2)C1=O [nilutamide] (first compound 1 µM, partner dose 1 µM) it is 141%.
For the compound `Cc1cc(Nc2cc(N3CCN(C)CC3)nc(Sc3ccc(NC(=O)C4CC4)cc3)n2)n[nH]1` [Tozasertib] + CC(C)CCN1c2nc(Nc3cc(F)c(O)c(F)c3)ncc2N(C)C(=O)C1C [BID1870] (first compound 0.006 µM, partner dose 0.2 µM), the cell count amounted to 92.6%.
The figure for `Cc1cc(Nc2cc(N3CCN(C)CC3)nc(Sc3ccc(NC(=O)C4CC4)cc3)n2)n[nH]1` [Tozasertib] + Cc1cc([N+](=O)[O-])ccc1NS(=O)(=O)c1cc(Cl)ccc1Cl [FH535] (first compound 0.006 µM, partner dose 1 µM) is 102%; for `CC[C@]1(O)C[C@H]2CN(CCc3c([nH]c4ccccc34)[C@@](C(=O)OC)(c3cc4c(cc3OC)N(C=O)[C@H]3[C@@](O)(C(=O)OC)[C@H](OC(C)=O)[C@]5(CC)C=CCN6CC[C@]43[C@@H]65)C2)C1` [vincristine] + c1cc(-c2cnn3cc(-c4ccc(OCCN5CCCCC5)cc4)cnc23)ccn1 [Dorsomorphin] (first compound 0.0001 µM, partner dose 0.4 µM) it is 75.5%; for `N#CC[C@H](C1CCCC1)n1cc(-c2ncnc3[nH]ccc23)cn1` [ruxolitinib] + Oc1nc(-c2ccc(C(F)(F)F)cc2)nc2c1CSCC2 [XAV939] (first compound 1 µM, partner dose 2 µM) it is 116%.
Take `Cc1cc(Nc2cc(N3CCN(C)CC3)nc(Sc3ccc(NC(=O)C4CC4)cc3)n2)n[nH]1` [Tozasertib] + Cn1cncc1[C@@](N)(c1ccc(Cl)cc1)c1ccc2c(c1)c(-c1cccc(Cl)c1)cc(=O)n2C [tipifarnib] (first compound 0.006 µM, partner dose 0.01 µM): the cell count was determined as 92.4%.
